# Results as given in publication PMC9911399, “Two distinct binding modes provide the RNA-binding protein RbFox with extraordinary sequence specificity”.
# Residue numbers refer to the chain shown, from its start. This is one part of the list.
# T1: RBFOX1 RRM (Homo sapiens, UniProt Q9NWB1 109-208)
# T1 sequence: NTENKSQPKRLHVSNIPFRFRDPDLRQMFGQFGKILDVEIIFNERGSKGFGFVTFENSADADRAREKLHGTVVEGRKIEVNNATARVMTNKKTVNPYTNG
# B1: CGCGAGC (DNA:RNA)
# RNA: GGGAGACCGGAAUUCAGAUUGUCCCGCGAGCUUAAAUCCCGUCGUAGCCACCA
# DNA 1: CAATCTGAATTCCGGTCTCCC
# DNA 2: TGGTGGCTACGACGGGATT
# B2: AGACCGG (DNA:RNA)
# RNA: B1 RNA with C25A, C27A, G28C, A29C, C31G
# DNA 1: CAATCTGAATTCCGGTCTCCC
# DNA 2: TGGTGGCTACGACGGGATT
# B3: CAAAUUA (DNA:RNA)
# RNA: B1 RNA with G26A, C27A, G28A, A29U, G30U, C31A
# DNA 1: CAATCTGAATTCCGGTCTCCC
# DNA 2: TGGTGGCTACGACGGGATT
# B4: CGCUAGA (DNA:RNA)
# RNA: B1 RNA with G28U, C31A
# DNA 1: CAATCTGAATTCCGGTCTCCC
# DNA 2: TGGTGGCTACGACGGGATT
# B5: GCCUCUC (DNA:RNA)
# RNA: B1 RNA with C25G, G26C, G28U, A29C, G30U
# DNA 1: CAATCTGAATTCCGGTCTCCC
# DNA 2: TGGTGGCTACGACGGGATT
# B6: GUCAAGC (DNA:RNA)
# RNA: B1 RNA with C25G, G26U, G28A
# DNA 1: CAATCTGAATTCCGGTCTCCC
# DNA 2: TGGTGGCTACGACGGGATT
# B7: CCCACUG (DNA:RNA)
# RNA: B1 RNA with G26C, G28A, A29C, G30U, C31G
# DNA 1: CAATCTGAATTCCGGTCTCCC
# DNA 2: TGGTGGCTACGACGGGATT
# B8: GAAGAUG (DNA:RNA)
# RNA: B1 RNA with C25G, G26A, C27A, G30U, C31G
# DNA 1: CAATCTGAATTCCGGTCTCCC
# DNA 2: TGGTGGCTACGACGGGATT
# B9: UUUUCAA (DNA:RNA)
# RNA: GGGAGACCGGAAUUCAGAUUGUCCUUUUCAAUUAAAUCCCGUCGUAGCCACCA
# DNA 1: CAATCTGAATTCCGGTCTCCC
# DNA 2: TGGTGGCTACGACGGGATT
# B10: GCGCAAU (DNA:RNA)
# RNA: B1 RNA with C25G, G26C, C27G, G28C, G30A, C31U
# DNA 1: CAATCTGAATTCCGGTCTCCC
# DNA 2: TGGTGGCTACGACGGGATT
# B11: UGAGAGU (DNA:RNA)
# RNA: B1 RNA with C25U, C27A, C31U
# DNA 1: CAATCTGAATTCCGGTCTCCC
# DNA 2: TGGTGGCTACGACGGGATT
# B12: UAUGGCC (DNA:RNA)
# RNA: B1 RNA with C25U, G26A, C27U, A29G, G30C
# DNA 1: CAATCTGAATTCCGGTCTCCC
# DNA 2: TGGTGGCTACGACGGGATT
# B13: UCUGGCG (DNA:RNA)
# RNA: B9 RNA with U26C, U28G, C29G, A30C, A31G
# DNA 1: CAATCTGAATTCCGGTCTCCC
# DNA 2: TGGTGGCTACGACGGGATT
# B14: AGAGGGC (DNA:RNA)
# RNA: B1 RNA with C25A, C27A, A29G
# DNA 1: CAATCTGAATTCCGGTCTCCC
# DNA 2: TGGTGGCTACGACGGGATT
# B15: CUUGCGG (DNA:RNA)
# RNA: B1 RNA with G26U, C27U, A29C, C31G
# DNA 1: CAATCTGAATTCCGGTCTCCC
# DNA 2: TGGTGGCTACGACGGGATT
# B16: AAGGAAU (DNA:RNA)
# RNA: B1 RNA with C25A, G26A, C27G, G30A, C31U
# DNA 1: CAATCTGAATTCCGGTCTCCC
# DNA 2: TGGTGGCTACGACGGGATT
# B17: GUAAUGC (DNA:RNA)
# RNA: B1 RNA with C25G, G26U, C27A, G28A, A29U
# DNA 1: CAATCTGAATTCCGGTCTCCC
# DNA 2: TGGTGGCTACGACGGGATT
# B18: CAAGGAC (DNA:RNA)
# RNA: B1 RNA with G26A, C27A, A29G, G30A
# DNA 1: CAATCTGAATTCCGGTCTCCC
# DNA 2: TGGTGGCTACGACGGGATT
# B19: CGUCUUA (DNA:RNA)
# RNA: B1 RNA with C27U, G28C, A29U, G30U, C31A
# DNA 1: CAATCTGAATTCCGGTCTCCC
# DNA 2: TGGTGGCTACGACGGGATT
# B20: GUCGUCA (DNA:RNA)
# RNA: B1 RNA with C25G, G26U, A29U, G30C, C31A
# DNA 1: CAATCTGAATTCCGGTCTCCC
# DNA 2: TGGTGGCTACGACGGGATT
# B21: CUCAGAC (DNA:RNA)
# RNA: B1 RNA with G26U, G28A, A29G, G30A
# DNA 1: CAATCTGAATTCCGGTCTCCC
# DNA 2: TGGTGGCTACGACGGGATT
# B22: UAGUACU (DNA:RNA)
# RNA: B9 RNA with U26A, U27G, C29A, A30C, A31U
# DNA 1: CAATCTGAATTCCGGTCTCCC
# DNA 2: TGGTGGCTACGACGGGATT
# B23: UCCUGGG (DNA:RNA)
# RNA: B1 RNA with C25U, G26C, G28U, A29G, C31G
# DNA 1: CAATCTGAATTCCGGTCTCCC
# DNA 2: TGGTGGCTACGACGGGATT
# B24: UCACAUU (DNA:RNA)
# RNA: B1 RNA with C25U, G26C, C27A, G28C, G30U, C31U
# DNA 1: CAATCTGAATTCCGGTCTCCC
# DNA 2: TGGTGGCTACGACGGGATT
# B25: CCACAGA (DNA:RNA)
# RNA: B1 RNA with G26C, C27A, G28C, C31A
# DNA 1: CAATCTGAATTCCGGTCTCCC
# DNA 2: TGGTGGCTACGACGGGATT
# B26: UCAUGAC (DNA:RNA)
# RNA: B9 RNA with U26C, U27A, C29G, A31C
# DNA 1: CAATCTGAATTCCGGTCTCCC
# DNA 2: TGGTGGCTACGACGGGATT
# B27: GGGGAAG (DNA:RNA)
# RNA: B1 RNA with C25G, C27G, G30A, C31G
# DNA 1: CAATCTGAATTCCGGTCTCCC
# DNA 2: TGGTGGCTACGACGGGATT
# B28: GUCAUGA (DNA:RNA)
# RNA: B1 RNA with C25G, G26U, G28A, A29U, C31A
# DNA 1: CAATCTGAATTCCGGTCTCCC
# DNA 2: TGGTGGCTACGACGGGATT
# B29: AUCGACG (DNA:RNA)
# RNA: B1 RNA with C25A, G26U, G30C, C31G
# DNA 1: CAATCTGAATTCCGGTCTCCC
# DNA 2: TGGTGGCTACGACGGGATT
# B30: UUACCGC (DNA:RNA)
# RNA: B9 RNA with U27A, U28C, A30G, A31C
# DNA 1: CAATCTGAATTCCGGTCTCCC
# DNA 2: TGGTGGCTACGACGGGATT
# B31: GAGAGAC (DNA:RNA)
# RNA: B1 RNA with C25G, G26A, C27G, G28A, A29G, G30A
# DNA 1: CAATCTGAATTCCGGTCTCCC
# DNA 2: TGGTGGCTACGACGGGATT
# Target: T1, RBFOX1 RRM
# Experiment: EMSA; HiTS-Eq, 1 nM pool, 10 min; buffer printed only for the single-RNA assays: 10 mM Tris pH 7.5, 150 mM NaCl, 3.4 mM EDTA, 0.001% NP-40, 30 C
# Conditions: tags: His6 N-terminal (pET28a); label: 5' 32P
# Outline: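 Purified wild-type or mutant RbFox RRM at increasing concentrations was equilibrated with 1 nM of 5′-radiolabelled RNA carrying 7 randomized nucleotides for 10 min in 50 µL. Unbound RNA was separated by 8% native PAGE and sequenced. Relative association constants came from read-count changes of each RNA species compared with the control reaction, normalised to the cognate motif.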
row,Binder,binding signal
1,B1,0.0185 KA relative to UGCAUGU
2,B2,0.00774 KA relative to UGCAUGU
3,B3,0.000328 KA relative to UGCAUGU
4,B4,0.0141 KA relative to UGCAUGU
5,B5,0.0137 KA relative to UGCAUGU
6,B6,0.00758 KA relative to UGCAUGU
7,B7,0.00327 KA relative to UGCAUGU
8,B8,0.0151 KA relative to UGCAUGU
9,B9,0.0108 KA relative to UGCAUGU
10,B10,0.012 KA relative to UGCAUGU
11,B11,0.0213 KA relative to UGCAUGU
12,B12,0.0165 KA relative to UGCAUGU
13,B13,0.0207 KA relative to UGCAUGU
14,B14,0.00728 KA relative to UGCAUGU
15,B15,0.0071 KA relative to UGCAUGU
16,B16,0.00527 KA relative to UGCAUGU

row,Binder,binding signal
1,B17,0.0131 KA relative to UGCAUGU
2,B18,0.00302 KA relative to UGCAUGU
3,B19,0.00618 KA relative to UGCAUGU
4,B20,0.0114 KA relative to UGCAUGU
5,B21,0.0105 KA relative to UGCAUGU
6,B22,0.0082 KA relative to UGCAUGU
7,B23,0.00619 KA relative to UGCAUGU
8,B24,0.00269 KA relative to UGCAUGU
9,B25,0.00978 KA relative to UGCAUGU
10,B26,0.00702 KA relative to UGCAUGU
11,B27,0.0311 KA relative to UGCAUGU
12,B28,0.0126 KA relative to UGCAUGU
13,B29,0.00839 KA relative to UGCAUGU
14,B30,0.00979 KA relative to UGCAUGU
15,B31,0.00496 KA relative to UGCAUGU
